Data published in the supplement of paper PMC3334620.
In all, about 33,000 sequences were measured (“E-score (-0.5 to 0.5)”: median about -0.032, highest 2% from about 0.36 on). This is one part of the list.

Each sequence was assayed against T1, Sko1 (UniProt Q02100) (assay: PBM E-score (8-mer binding enrichment) (E-score (-0.5 to 0.5)); higher = stronger / more preferred TF binding; most listed sequences are background and not binding sites). Details: protein concentration: 200 nM; construct: GST-full length.
T1 sequence: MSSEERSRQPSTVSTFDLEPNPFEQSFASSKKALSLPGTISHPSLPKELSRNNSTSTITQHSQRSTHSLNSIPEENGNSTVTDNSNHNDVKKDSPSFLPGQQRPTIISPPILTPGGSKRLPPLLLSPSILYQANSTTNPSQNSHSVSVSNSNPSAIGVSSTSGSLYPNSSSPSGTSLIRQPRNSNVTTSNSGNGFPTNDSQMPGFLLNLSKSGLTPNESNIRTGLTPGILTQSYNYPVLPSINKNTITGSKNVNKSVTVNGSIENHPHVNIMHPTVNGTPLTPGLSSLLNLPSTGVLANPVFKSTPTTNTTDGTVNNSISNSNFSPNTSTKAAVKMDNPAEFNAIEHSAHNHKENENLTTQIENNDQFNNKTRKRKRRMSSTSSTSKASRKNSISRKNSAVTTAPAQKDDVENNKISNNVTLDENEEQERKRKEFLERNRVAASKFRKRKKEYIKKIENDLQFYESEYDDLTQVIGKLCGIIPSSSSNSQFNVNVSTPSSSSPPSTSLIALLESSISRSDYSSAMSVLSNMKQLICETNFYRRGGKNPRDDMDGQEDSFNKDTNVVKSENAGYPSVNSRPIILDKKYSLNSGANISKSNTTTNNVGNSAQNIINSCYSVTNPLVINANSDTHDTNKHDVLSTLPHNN
Outline: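 Each ungapped eight-base word and its reverse complement, pooled, received an E-score from the Universal PBM Analysis Suite. Underlying scans, normalised with masliner, recorded fluorescent anti-GST bound to GST-tagged yeast transcription factors. These were applied at about 100-200 nM to universal all-10-mer Agilent arrays double-stranded by primer extension.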

| Sequence | PBM E-score |
| --- | --- |
| ACACTAGT | -0.128 |
| AATGCCCC | -0.274 |
| AACCTGTG | -0.189 |
| AATTGGGA | 0.00396 |
| TAACGCTA | 0.118 |
| ATTTACTG | 0.14 |
| ATGGCTTG | -0.0941 |
| AACAATGT | 0.0572 |
| CACTCTGG | -0.14 |
| AGCCAATA | -0.0276 |
| GAGAAGGC | -0.252 |
| AAATAGTC | -0.101 |
| CCATGGGG | -0.18 |
| CACTCCCC | -0.223 |
| GGAATCTA | 0.103 |
| CGAGGTGA | 0.101 |
| GACCGCCA | -0.172 |
| AACTTGGG | -0.046 |
| CGTGAGTA | 0.14 |
| AAGCTCGC | -0.0406 |
| CACCACCC | -0.226 |
| CAACCGCA | -0.251 |

| Sequence | PBM E-score |
| --- | --- |
| ATGATCTC | 0.145 |
| CGTACTTA | 0.28 |
| AGCGCTGG | -0.211 |
| AACTTCCA | -0.181 |
| AATCCATT | 0.183 |
| AGGCCGAT | -0.0587 |
| GATGCAGC | -0.0157 |
| ATACATCC | 0.0616 |
| CAATTTCC | -0.134 |
| CAACTAGG | 0.0291 |
| CTCCCTGA | -0.239 |
| AAGCTAAC | 0.0665 |
| ATATTGAG | 0.0657 |
| CCGTCTTC | -0.306 |
| AATTGCCT | 0.0707 |
| ACGGAGAA | 0.055 |
| AGACCCAT | -0.0753 |
| CTACCTGA | 0.0807 |
| CACCAAAG | -0.0931 |
| ATGAACCC | -0.0618 |
| CACTTTGC | 0.0489 |
| CGGGAGCA | -0.238 |

| Sequence | PBM E-score |
| --- | --- |
| GGTGCAGA | -0.313 |
| GCAGCAAC | -0.0872 |
| TATGTCCA | -0.0359 |
| GAGGGGGC | -0.4 |
| ATACGCCC | -0.0909 |
| CATTACTA | 0.166 |
| AGGTTCTA | -0.0376 |
| ATCCACGA | 0.0828 |
| CAAGCAGC | -0.218 |
| ATGTTCAG | -0.125 |
| ACAAGAGT | -0.0688 |
| ATAAGAAG | 0.0366 |
| CACTGTAA | 0.0809 |
| CTGACACA | -0.079 |
| AGCAACAG | -0.0611 |
| CGCGTCTA | 0.149 |
| GCTCCGGA | -0.162 |
| ACGGTCTA | -0.00461 |
| TGCTTACA | -0.0407 |
| ACGTATTG | 0.464 |
| GCACGGAC | -0.0227 |
| AGACCCCA | -0.188 |

| Sequence | PBM E-score |
| --- | --- |
| ACCGGAGG | -0.363 |
| ACGGATCG | -0.137 |
| ATGAGACG | 0.0398 |
| TGAGCCCA | -0.126 |
| ACAGAGGA | 0.00055 |
| AGACCCGC | -0.0587 |
| AGGATCGG | -0.224 |
| GATCAGCA | -0.0416 |
| TAAATCAA | 0.178 |
| CAGTTCGC | 0.0184 |
| GAAATCAA | 0.0594 |
| AATAAAGC | 0.0835 |
| CATATTGG | 0.0555 |
| CGATAGAA | 0.027 |
| CTTGGCGC | -0.204 |
| CTCCGAGA | -0.215 |
| TACCTCTA | 0.0817 |
| CAGGGAGA | -0.165 |
| ACGACGGA | 0.0966 |
| AAGTTGGG | -0.0302 |
